Reference: article PMC7819943, “Rice protein-binding microarrays: a tool to detect cis-acting elements near promoter regions in rice”
The list shows a part of the results.

The sequences below were run against T1, OsWOX13 (Oryza sativa, UniProt Q5QMM3 1-267) (assay: protein-binding microarray (RPBM); PBS, 2% BSA, 51.3 ng/ul salmon testes DNA, 50 uM zinc acetate, 200 nM TF, 25 C, 1 h; high values mean tight binding). Details: protein: recombinant; tags: N-terminal polyhistidine and DsRed monomer fusion (pET32a); label: CyDye5-dUTP incorporated in the synthesized complementary strand; 3' TTTTT single-stranded linker to array surface; dsDNA, one strand shown.
T1 sequence: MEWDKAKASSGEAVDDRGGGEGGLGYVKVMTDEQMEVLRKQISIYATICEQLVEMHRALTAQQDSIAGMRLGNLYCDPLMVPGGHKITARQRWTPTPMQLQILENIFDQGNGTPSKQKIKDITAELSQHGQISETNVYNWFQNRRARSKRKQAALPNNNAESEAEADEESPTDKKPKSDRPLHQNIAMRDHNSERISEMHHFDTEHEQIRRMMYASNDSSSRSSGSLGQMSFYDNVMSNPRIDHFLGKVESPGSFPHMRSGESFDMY
How it was run: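 A custom Agilent array was converted to double-stranded form by primer extension with Cy5-dUTP and blocked with 2% BSA. Protein at 200 nM in PBS with 2% BSA, salmon testes DNA and 50 µM zinc acetate was applied for 1 h at 25 °C, followed by washing. The proteins were polyhistidine–DsRed N-terminal fusions of transcription factors, expressed in E. coli BL21-CodonPlus and Ni–NTA-purified. The binding signal is per-feature fluorescence intensity (arbitrary units) from an Axon 4000B scanner.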

Sequence	binding signal
TATATATTTGATAATGGCAATCAATCCGTAGCAACTTCTGCGGAGTCACCTAGTGCAG	15500 fluorescence intensity (a.u.)
GGGTCTGTTAAGATTGATGCCAAGAGACATGCAATCATCCCGGAGTCACCTAGTGCAG	5580 fluorescence intensity (a.u.)
AACTAATTGCACAGTTTACATAAATCGCGAGACGAATCTTCGGAGTCACCTAGTGCAG	24800 fluorescence intensity (a.u.)
AAAACTATTAAATTTCAATTGGGCTAAAACTAGCACAAACCGGAGTCACCTAGTGCAG	3860 fluorescence intensity (a.u.)
TTCATTTGCTAATTAAGGACTCTTCTTTAATTTTGTCGCCCGGAGTCACCTAGTGCAG	7630 fluorescence intensity (a.u.)
TTTCTGATGAGACAATCATTGATGAAGTCAACTTCCCAATCGGAGTCACCTAGTGCAG	23200 fluorescence intensity (a.u.)
ATATATATATATATATATATATATATATATATGTATGTATCGGAGTCACCTAGTGCAG	20300 fluorescence intensity (a.u.)
TCTCTGCATTTGAATGACTAATTAGAGCGATTTTCTAGCTCGGAGTCACCTAGTGCAG	3300 fluorescence intensity (a.u.)
CCAAATGAATTTATTTTAATTTTCATATGCTTGTACAAATCGGAGTCACCTAGTGCAG	7500 fluorescence intensity (a.u.)
TTCCTGTAACTGGCATAACAATTGGTGCCCTGAACTTATGCGGAGTCACCTAGTGCAG	9580 fluorescence intensity (a.u.)
AAAATTAGTCTAATTTAAAATAGTTTGACTCGTAACCTGACGGAGTCACCTAGTGCAG	13200 fluorescence intensity (a.u.)
GGGGATTGGGAGTTTACACGAGGGAATTGATGATGAGATTCGGAGTCACCTAGTGCAG	24400 fluorescence intensity (a.u.)
AATTAATATTTAATTAATTATATGCTAATGAGCCTTCTCGCGGAGTCACCTAGTGCAG	43600 fluorescence intensity (a.u.)
GTGTATGGGGTCTGATTGCTTTGAGGCTTGCAGATGATGACGGAGTCACCTAGTGCAG	7770 fluorescence intensity (a.u.)
TAATATGTCCAATTATCCATGCAATCAAGCATCTAGAGTGCGGAGTCACCTAGTGCAG	11400 fluorescence intensity (a.u.)
ACTAATTAATCAAGTAAGTCATAGGTCATGGATTTTATTTCGGAGTCACCTAGTGCAG	13800 fluorescence intensity (a.u.)
CATGAAATAAATTTACAATTGATAAACAATTAGATGATGACGGAGTCACCTAGTGCAG	16500 fluorescence intensity (a.u.)
GTTAAATTAGTGCCATGTTTCTTCAGTTATGTTAATTACACGGAGTCACCTAGTGCAG	19100 fluorescence intensity (a.u.)
TTTCCAATCAGGTATCCAACTAAAGCAAATCCAATTAAAACGGAGTCACCTAGTGCAG	3190 fluorescence intensity (a.u.)
AGGTAATTGGAAGGCAATTCCTCCTTTATCTAACCAAATCCGGAGTCACCTAGTGCAG	36700 fluorescence intensity (a.u.)
ATATATATAATTAATTAAGGGACATAATTAGTAGTTGCCACGGAGTCACCTAGTGCAG	31400 fluorescence intensity (a.u.)

Sequence	binding signal
GATTCTAATGGATGAATTGATGGTGTGGCGTATGTGATAGCGGAGTCACCTAGTGCAG	11500 fluorescence intensity (a.u.)
TCCCTCTGTATCACGTTCTTTGATTGCGTTGCGTGACTGGCGGAGTCACCTAGTGCAG	7020 fluorescence intensity (a.u.)
CCTTAATTGCATGGTTTATGTGAGTTTATGGTACACATTTCGGAGTCACCTAGTGCAG	26200 fluorescence intensity (a.u.)
TTTATCAATTAAACGACAATTTGGAAGCCTTCTTATATTTCGGAGTCACCTAGTGCAG	13800 fluorescence intensity (a.u.)
TGATCTGATTGAACAGTCAATCACAGATTCACAGTAGGACCGGAGTCACCTAGTGCAG	62500 fluorescence intensity (a.u.)
TTACGCTATGATTTAATAATGTGATGCTACAGTAAACATTCGGAGTCACCTAGTGCAG	4620 fluorescence intensity (a.u.)
TAGAGCTAAATTCTGAAATTGACAAGTACATCAACAATACCGGAGTCACCTAGTGCAG	3550 fluorescence intensity (a.u.)
CTAGCTTTGAGGTGGAGGTGGTGGTGGAGGAGGAGGAGGACGGAGTCACCTAGTGCAG	3340 fluorescence intensity (a.u.)
TGGTATGATTGAAAATGACATGTAAGTGAACATGCCTCTACGGAGTCACCTAGTGCAG	39500 fluorescence intensity (a.u.)
CATGTTCCTTAATTAATTGATTCCTCTGTGCATGCATATACGGAGTCACCTAGTGCAG	29600 fluorescence intensity (a.u.)
AAGTAGATGGAGTAATTAATACTCCCTCCTTCCCTAAATGCGGAGTCACCTAGTGCAG	6090 fluorescence intensity (a.u.)
GATAAATCTAAATCTTAATGTATACCAACTGATTTTAGGTCGGAGTCACCTAGTGCAG	9540 fluorescence intensity (a.u.)
GTGCCTTTTAATTTTAACTGGTACCTAGTGCTTATTAATTCGGAGTCACCTAGTGCAG	3180 fluorescence intensity (a.u.)
AATTAATTGAGCGGCGGCGGCTGGGACTATATATAGAGAGCGGAGTCACCTAGTGCAG	28800 fluorescence intensity (a.u.)
CCACAATTCTGATTAGATTTTAACTCAACTATCATGGTCTCGGAGTCACCTAGTGCAG	26100 fluorescence intensity (a.u.)
GACTAACACCCTAGACTGATTAATCAAAGCATTGTGCATGCGGAGTCACCTAGTGCAG	16800 fluorescence intensity (a.u.)
AGTTGATTTTAAAATTTAGTTTTAAGATTTAAATTTTGGTCGGAGTCACCTAGTGCAG	35300 fluorescence intensity (a.u.)
AGGAATCCTGATTTATAAAGCTCAACAGTGAGCGACAAGGCGGAGTCACCTAGTGCAG	4910 fluorescence intensity (a.u.)
ACCGTATAATTTTGCAAAATGATCCCTGTTTTGGACTTGGCGGAGTCACCTAGTGCAG	7640 fluorescence intensity (a.u.)
AGTCACGCTTTGAACGCTAATTAGCGTTCTCGGGCGGCGGCGGAGTCACCTAGTGCAG	3320 fluorescence intensity (a.u.)
TCAATCAAATTAATCCACCAGTCAGGAGTAACTCCTTTGACGGAGTCACCTAGTGCAG	4070 fluorescence intensity (a.u.)

Sequence	binding signal
TGCCTCTATCACATTCTTTCTTGTTCACATTTCCTCTTCTCGGAGTCACCTAGTGCAG	3180 fluorescence intensity (a.u.)
AATATATTTAAATTGATTTTAGCTATTTTACACCACGGTTCGGAGTCACCTAGTGCAG	28900 fluorescence intensity (a.u.)
CCCCTGATAATTGCGTCGTTGTACCATGGCTGTGAGGGCTCGGAGTCACCTAGTGCAG	19900 fluorescence intensity (a.u.)
ATAGATAGCTTAATTAGCAGCTAGAGATGTGTCTCTAGCTCGGAGTCACCTAGTGCAG	10400 fluorescence intensity (a.u.)
AGGCGTTAATTAACAAAGTGGTTAAGCCCTTAATGGCCACCGGAGTCACCTAGTGCAG	18200 fluorescence intensity (a.u.)
AAACCAAAATATATTGATTACATTTCAATTCAAATTCAATCGGAGTCACCTAGTGCAG	4350 fluorescence intensity (a.u.)
ATCCGAGAGAATCAATCAGCGGGTGTAGAGAAGCGATCGCCGGAGTCACCTAGTGCAG	6080 fluorescence intensity (a.u.)
GGGGATAACTTGTGGGAAATTGGGTAGAAAGGGAGTTTTGCGGAGTCACCTAGTGCAG	3820 fluorescence intensity (a.u.)
CCAGGTGGATTGGCAATTTGGGATTTTGCATTAAAACTTGCGGAGTCACCTAGTGCAG	37500 fluorescence intensity (a.u.)
TGAGATAATTGGTAATACTCCTCCCATTCTTGAACAAGTACGGAGTCACCTAGTGCAG	24900 fluorescence intensity (a.u.)
AGCCTTAACTATTTCCATAATCATATTTTCTCGGAAATGACGGAGTCACCTAGTGCAG	5820 fluorescence intensity (a.u.)
ACTGAATAAATTGGTACTAACTTGACTGCTGTTATTCTTTCGGAGTCACCTAGTGCAG	35400 fluorescence intensity (a.u.)
CTGTGAATTTATGAATTAATTAAATATTTTGTTAAATAAACGGAGTCACCTAGTGCAG	6470 fluorescence intensity (a.u.)
CACAATTCCTTCTAATTATTTGATAATCAAGTTTCTCCTTCGGAGTCACCTAGTGCAG	9620 fluorescence intensity (a.u.)
GCCTTGATTGATCTTGTAACTTGGCATGGTCCACAAGAAACGGAGTCACCTAGTGCAG	28900 fluorescence intensity (a.u.)
GTTAGATTAGATTGGTACCTCATGTTACCTCGTACCTCATCGGAGTCACCTAGTGCAG	55700 fluorescence intensity (a.u.)
TTTAATTTTAACGTTAACTAAACACACCCTTAGTACTGGACGGAGTCACCTAGTGCAG	27400 fluorescence intensity (a.u.)
GTTTGTACACGTGATTAGCAAGAACCAAACCATGTTTCAACGGAGTCACCTAGTGCAG	10200 fluorescence intensity (a.u.)
AATAACAAATACTTAATTAATCATGCGTTAATACAAACATCGGAGTCACCTAGTGCAG	19500 fluorescence intensity (a.u.)
CATAGATTAATTAGGCTCAATAGATTCGTCTCGCGAATTACGGAGTCACCTAGTGCAG	16200 fluorescence intensity (a.u.)
GATCATGACTGGCGAGTCAATGTACAGGACATGAAAACCACGGAGTCACCTAGTGCAG	3550 fluorescence intensity (a.u.)

Sequence	binding signal
CATAAATAATCATACCAAACAACACAAGACATAAAGGAAGCGGAGTCACCTAGTGCAG	4060 fluorescence intensity (a.u.)
CAATTAATTGCTTATCCGTGGCCTTGATCAATTACTGTGCCGGAGTCACCTAGTGCAG	56600 fluorescence intensity (a.u.)
AATTTAAAATTTCTCAAATTGATCATTATATAACCGCATGCGGAGTCACCTAGTGCAG	8700 fluorescence intensity (a.u.)
GCAATGATTTCCCAAGCTTAAACCCCTATGCTTCCTCGGTCGGAGTCACCTAGTGCAG	5930 fluorescence intensity (a.u.)
CGATCATGATTAGCAACGCAATTAAATTCCCCAATCACCCCGGAGTCACCTAGTGCAG	39400 fluorescence intensity (a.u.)
TTAGTACTATTAATTTGGTGGGGTTGGGTGGGTGCTGTAACGGAGTCACCTAGTGCAG	5840 fluorescence intensity (a.u.)
CCAAATTTGATATGTTTGCAGCTGCACGCTGCTATCACACCGGAGTCACCTAGTGCAG	16800 fluorescence intensity (a.u.)
ACTTTTCTATTTAATTTTATCTATTTTCTTAATAACTATGCGGAGTCACCTAGTGCAG	4340 fluorescence intensity (a.u.)
ATATAATTAAATGATTAATTAATTAGTACCGTTTTACTTGCGGAGTCACCTAGTGCAG	65500 fluorescence intensity (a.u.)
ATGGCTGAGTTGATTGGTCTTTCATTTGCTAAAGGTATGACGGAGTCACCTAGTGCAG	16900 fluorescence intensity (a.u.)
GGGATTAATTAAATATGGTATGTTATAAAGATAACTAATACGGAGTCACCTAGTGCAG	10300 fluorescence intensity (a.u.)
AGTCCAATTGAATAAATAAATAATGAAATAAATGTAGAGGCGGAGTCACCTAGTGCAG	6420 fluorescence intensity (a.u.)
CAGTGTTCTATCAGTACATGATTTGGCAATAAACTTGGCTCGGAGTCACCTAGTGCAG	4690 fluorescence intensity (a.u.)
AAAATTTATTTATACATTAATGGTTTAGAAAACTTATTGTCGGAGTCACCTAGTGCAG	4820 fluorescence intensity (a.u.)
AGTTATTGGTGGTACAATGATTTACAATGGTATCTATGTGCGGAGTCACCTAGTGCAG	3200 fluorescence intensity (a.u.)
GCTACATAATTATTCTGACTATTCGATCAGAATGATACGTCGGAGTCACCTAGTGCAG	14900 fluorescence intensity (a.u.)
TCTTTATCAATCTCAAGATATACTAGTCAGTCTTTCGGATCGGAGTCACCTAGTGCAG	3630 fluorescence intensity (a.u.)
GTTCGATTGAGATAGCTCTTAACATCAGTGACTTCTAGCCCGGAGTCACCTAGTGCAG	3800 fluorescence intensity (a.u.)
CTCAAATAATCATGTCAGCTGGATTAATTGGAGTACTTTTCGGAGTCACCTAGTGCAG	24700 fluorescence intensity (a.u.)
CAAGCTGATTGATCCAAAGCTACAAGAACAATCAGCTTAGCGGAGTCACCTAGTGCAG	44700 fluorescence intensity (a.u.)
ATGATTACTCTCATTATTAATATTATATATTATACGTGAACGGAGTCACCTAGTGCAG	18800 fluorescence intensity (a.u.)
